# About 1,900 (1.5%) of roughly 130,000 compounds were called active. The shares of active, inactive and inconclusive entries below differ from those in the screen. Calls come from the whole dose curve; as a rule, active = well fitted cell-killing curve with a large enough effect; inconclusive = small, poorly fitted or top-dose-only effect; inactive = no such curve, though single readings can be large or run the other way. Where the call is inconclusive, the potency comes from a doubtful curve fit.
# Assay: qHTS Screen for Compounds that Selectively Target Cancer Cells with p53 Mutations: Cytotoxicity of p53ts Cells at the Nonpermissive Temperature; note: nearly all actives have a fitted effect of over 55% in size
# Conditions: H1299-p53A138V viability at 39C, ATP luminescence, 24 h; activity change, negative = cell killing: at 46.1 µM (top of the series)
# % is set by controls: 0 for no effect and ±100 for the full control effect; potency is the fitted concentration of half-maximal effect; tags give direction and shape of the fitted curve.
Structure (SMILES),Potency,"activity change, negative = cell killing"
O=C(NCc1cccnc1)c1cc(-c2cccs2)on1,"inconclusive: 31.6 µM [cytotoxic, single point]",
COc1ccc(O)c(-c2cc(-c3cccc(Br)c3)n[nH]2)c1,"inconclusive: 20 µM [cytotoxic, single point]",
O=C(CC(c1ccccc1)c1cc(Br)ccc1O)NCC1(c2ccccc2)CCCC1 (centres undefined),active: 10 µM,
CCOC(=O)c1ccc(NC(=O)Cc2ccc(-n3c(CC)nc4cccnc43)cc2)cc1,,inactive: -23.3%
COc1ccc2oc(=N)c(C(=O)Nc3ccccc3)cc2c1,"inconclusive: 20 µM [cytotoxic, partial curve]",
Cn1c(CCN2CCCCC2)nc2cc(NS(=O)(=O)c3ccc(Cl)cc3)ccc21,"inconclusive: 31.6 µM [cytotoxic, single point]",
CCCC[C@@H]1C[C@H]1C(NC(=O)c1cccnc1)c1ccc(-c2ccccc2)cc1 (some centres undefined),,inactive: -18.8%
COc1cccc2sc(Nc3nnc(-c4cccs4)o3)nc12,active: 12.6 µM,
CCC(=O)OCCCNc1nc(-c2ccc(Cl)cc2)nc2ccccc12,"inconclusive: 25.1 µM [cytotoxic, single point]",
Clc1ccc2nc(-c3ccc(Br)o3)c(Nc3ccc4c(c3)OCCO4)n2c1,"inconclusive: 12.6 µM [cytotoxic, single point]",
CCOc1ccc(-c2nc(SCC(=O)Nc3ccc4c(c3)OCCO4)c(-c3ccc(F)cc3)[nH]2)cc1,active: 15.8 µM,
CS(=O)(=O)c1nc(-c2cccs2)cc(C(F)(F)F)n1,"inconclusive: 31.6 µM [cytotoxic, single point]",
CC(=O)N1C(=O)CC(C)N(C(C)=O)c2ccc([N+](=O)[O-])cc21 (centres undefined),,inactive: -11.9%
Fc1ccc([C@H]2CCNC[C@H]2COc2ccc3c(c2)OCO3)cc1,active: 10 µM,
O=c1c(O)c(-c2ccccc2)oc2cccc(O)c12,"inconclusive: 3.16 µM [cytotoxic, single point]",
N=c1c2c(-c3ccccc3)c(-c3ccccc3)n(Cc3ccco3)c2ncn1Cc1ccco1,"inconclusive: 31.6 µM [cytotoxic, single point]",
O=C(CSc1nnc(COc2ccc(Cl)cc2)o1)N1CCN(c2ccccc2)CC1,,inactive: 8.2%
CC1CCC(NC(=O)c2ccc3c(c2)N(Cc2ccccc2F)C(=O)c2ccccc2S3)CC1 (centres undefined),,inactive: -7.19%
COc1ccccc1CNc1nc(-c2ccccc2CN(C)C)nc2ccccc12,active: 15.8 µM,
Cc1ccc(CCNC(=O)c2cc3c(s2)-c2ccccc2OC3)cc1,"inconclusive: 12.6 µM [cytotoxic, partial curve]",
CC1CCN(CC(=O)N2CCCc3c2c(=O)oc2ccc(OCc4ccccc4)cc32)CC1,"inconclusive: 12.6 µM [cytotoxic, partial curve]",
O=C(Nc1ccc2c(c1)OCO2)C1CCCN(c2nc3ccccc3s2)C1 (centres undefined),"inconclusive: 31.6 µM [cytotoxic, single point]",
C[C@H]1[C@H](C)CC[C@]2(C(=O)O)CC[C@]3(C)C(=CCC4[C@@]5(C)CC[C@H](O)C(C)(C)[C@@H]5CC[C@]43C)[C@H]12 (some centres undefined),,inactive: -0.249%

Structure (SMILES),Potency,"activity change, negative = cell killing"
COc1ccc(-n2cc(C(=O)NCCc3ccc(C)cc3)c3ccccc3c2=O)cc1,"inconclusive: 5.62 µM [cytotoxic, single point]",
CCOc1c(CC2C(=O)Nc3ccc(Br)cc32)cccc1OC (centres undefined),"inconclusive: 25.1 µM [cytotoxic, partial curve, poor fit]",
Cc1ccc(C(=O)Nc2cccc(C(=O)O)c2)cc1S(=O)(=O)N1CCCCC1,"inconclusive: 12.6 µM [cytotoxic, partial curve]",
O=C(Nc1ccc2c(c1)OCCO2)C1CCCN(c2ncccn2)C1 (centres undefined),"inconclusive: 10 µM [cytotoxic, partial curve]",
CCOc1ccc(CNC(=O)Cn2nc(C)c3nn(-c4ccc(Cl)cc4)c(C)c3c2=O)cc1,,inactive: -9.22%
CCc1nn(CC(=O)NCc2ccco2)c(=O)c2cc3cc(F)ccc3n12,,inactive: -13.8%
Cc1cc(Cl)ccc1OCCCC(=O)NO,"inconclusive: 25.1 µM [cytotoxic, single point]",
Clc1ccccc1-c1nc(-c2ccncc2)no1,,inactive: -5.3% [at 9.22 µM]
Clc1ccc(-c2ccc(CNCCSc3nnnn3-c3ccccc3)o2)cc1,,inconclusive: -31.6% [cytotoxic]
C[C@H](Oc1ccc(Oc2cnc3ccc(Cl)cc3n2)cc1)C(=O)O,"inconclusive: 0.794 µM [cytotoxic, full curve, poor fit]",
CCCN(CCC)CCCNC(=O)c1cc2c(-c3ccc(Cl)cc3)nn(C)c2s1,active: 12.6 µM,
COc1ccc(-c2cc(C(=O)N3CC4(C)CC3CC(C)(C)C4)no2)cc1 (centres undefined),,inactive: -6.45%
COc1ccccc1CCNC(=O)Cc1c(C)c2c(O)cc(C)cc2oc1=O,,inactive: 12.2%
COc1ccc(-c2noc(-c3ccccc3Cl)n2)cc1OC,"inconclusive: 12.6 µM [cytotoxic, single point]",
COc1cccc(-c2cnc(NCc3cc(Cl)ccc3O)n2C)c1,"inconclusive: 20 µM [cytotoxic, single point]",
COc1ccc(Cn2c(=O)c3oc4ccccc4c3n(Cc3ccccc3)c2=O)cc1,,inactive: -13%
CC(C)Cn1nc(NS(=O)(=O)c2ccccc2)c2cc3ccccc3nc21,"inconclusive: 10 µM [cytotoxic, partial curve]",
Cc1ccc(OCCSc2nc(-c3cccs3)nc3cc(=O)[nH]n23)cc1Cl,"inconclusive: 0.0045 µM [cytotoxic, full curve, poor fit]",
Nc1ccc(C(=O)O)cc1,inactive,
CC(C)(Oc1ccc(Cl)cc1)C(=O)Nc1cccc(-c2cn3cccnc3n2)c1,"inconclusive: 12.6 µM [cytotoxic, partial curve]",
CCN1C(=O)[C@H]2[C@H]3[C@H](O)[C@H](O)C/C(=N/NC(=O)OCc4ccccc4)[C@H]3CC[C@@H]2C1=O,,inactive: 8.39% [at 9.22 µM]
COc1ccccc1CN1CCC(CNC(=O)c2cnn(-c3ccc(C)c(C)c3)c2C2CCN(C(=O)OC(C)(C)C)CC2)CC1,"inconclusive: 31.6 µM [cytotoxic, single point]",
COc1ccc(Cc2nnc(SCC(=O)Nc3ncc(C)s3)o2)cc1,,inactive: 2.39%

Structure (SMILES),Potency,"activity change, negative = cell killing"
CCCN(CCC)CCNC(=O)c1cc(-c2ccc(Br)s2)nc2ccccc12,"inconclusive: 2 µM [cytotoxic, partial curve]",
CCCSc1nc2c(cnn2-c2ccc(C)cc2)c(=O)[nH]1,,inactive: -17.7%
Cc1oc(-c2cccc(Cl)c2)nc1CN1CCC(C(=O)NCCc2ccc(Cl)cc2)CC1,"inconclusive: 2.51 µM [cytotoxic, partial curve]",
COc1ccc(C(=O)Nc2ccc(N3CCOCC3)c(C(F)(F)F)c2)cc1OC,"inconclusive: 31.6 µM [cytotoxic, single point]",
Cc1ccc(CN2C(=O)c3ccccc3Sc3ccc(C(=O)NCCCN4CCOCC4)cc32)cc1,"inconclusive: 10 µM [cytotoxic, partial curve]",
Cc1ccc2nc(Nc3ccc4[nH]c(=O)[nH]c4c3)c(-n3nc(C)cc3C)nc2c1,"inconclusive: 20 µM [cytotoxic, single point]",
COC(=O)c1cccc(-n2nnnc2SCC(=O)Nc2nc3c(s2)CCCC3)c1,,inactive: 24.2%
Cc1ccn2c(Nc3ccc4c(c3)OCCO4)c(-c3ccc(C)s3)nc2c1,active: 12.6 µM,
COC(=O)c1sc(N2C(=O)C(O)=C(C(=O)c3ccc(C)o3)C2c2ccc(F)cc2)nc1C (centres undefined),,inactive: 4.86%
O=c1c(N2CCc3ccccc3C2)csc2ccc(Br)cc12,,inactive: -10.2%
Cc1ccc2oc3c(c(=O)c2c1)C(c1ccc(OCC(N)=O)cc1)N(Cc1ccc2c(c1)OCO2)C3=O (centres undefined),,inactive: 4.13%
COc1cccc(-c2cc(NCc3ccccc3)ncn2)c1,"inconclusive: 10 µM [cytotoxic, partial curve]",
O=C(NC1CCCCCCC1)c1ccc2c(c1)OCO2,"inconclusive: 12.6 µM [cytotoxic, partial curve]",
Cc1ccc(O)c(C2=Nc3ccccc3N=C(c3cccc(F)c3)C2)c1,"inconclusive: 12.6 µM [cytotoxic, single point]",
O=C(Nc1ccc(C(=O)N2CCN(c3ccc(Cl)cc3)CC2)cc1)c1nsc2ccccc12,"inconclusive: 20 µM [cytotoxic, partial curve, poor fit]",
CCSc1nnc(NC(=O)c2ccc(C)o2)s1,"inconclusive: 20 µM [cytotoxic, single point]",
CCOCN(C(=O)Cn1cnc2cc(C)c(C)cc21)c1c(C)cccc1CC,"inconclusive: 0.02 µM [cytotoxic, full curve]",
CCc1ccc(-n2nc(C)c3c(C(=O)Nc4cc(C)ccc4C)cc(C)nc32)cc1,"inconclusive: 20 µM [cytotoxic, partial curve, poor fit]",
CCOc1ccccc1CNC(=O)C1CCCN(S(=O)(=O)c2ccc3c(ccn3C)c2)C1 (centres undefined),"inconclusive: 3.98 µM [cytotoxic, full curve, poor fit]",
Cc1cccc(N2CCN(C(=O)c3ccc4c(c3)c(C)c(C)n4C)CC2C)c1 (centres undefined),"inconclusive: 0.631 µM [cytotoxic, full curve, poor fit]",
Cn1c(-c2ccccc2)cnc1SCc1nc2ccccc2c(=O)[nH]1,"inconclusive: 12.6 µM [cytotoxic, partial curve]",
CCc1c(C)c2ccc(O)c(CN3CCN(c4ccccc4)CC3)c2oc1=O,"inconclusive: 15.8 µM [cytotoxic, single point]",
O=S(=O)(O)c1ccc(N=Nc2ccc3c(S(=O)(=O)O)cccc3c2O)c2ccccc12,,inactive: -5.11% [at 9.22 µM]

# Source: PubChem BioAssay AID902 (National Center for Advancing Translational Sciences (NCATS), 2007)
